Assay results from paper PMC5062570 (Nature Communications, 2016).
Several values for one entry are separate records, joined by “and”; a condition that tells them apart may be missing. Equal values may be shown once.

What was measured:
[1] = target: PF-7802-labelled proteins in ARPE-19 cells (Homo sapiens, UniProt P08962); details: protein CD63 CD63 antigen (P08962)
[2] = target: PF-7802-labelled proteins in ARPE-19 cells (Homo sapiens, UniProt P0DPH8); details: TUBA3D Tubulin alpha-3C/D chain (Q13748)
UniProt P0DPH8, sequence (P0DPH8 whole entry): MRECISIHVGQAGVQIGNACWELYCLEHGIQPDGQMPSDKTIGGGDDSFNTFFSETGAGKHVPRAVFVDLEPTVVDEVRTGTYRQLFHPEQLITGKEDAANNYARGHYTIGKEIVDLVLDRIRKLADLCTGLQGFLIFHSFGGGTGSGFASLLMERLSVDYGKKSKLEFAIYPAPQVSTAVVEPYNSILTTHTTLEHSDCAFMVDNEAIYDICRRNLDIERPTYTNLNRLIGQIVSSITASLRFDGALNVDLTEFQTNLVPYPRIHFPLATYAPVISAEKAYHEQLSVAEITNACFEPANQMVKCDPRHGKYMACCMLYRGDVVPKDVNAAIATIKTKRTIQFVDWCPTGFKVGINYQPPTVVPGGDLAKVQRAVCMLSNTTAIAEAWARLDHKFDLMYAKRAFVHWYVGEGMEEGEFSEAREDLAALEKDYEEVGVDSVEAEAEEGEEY

[3] = target: PF-7802-labelled proteins in ARPE-19 cells (Homo sapiens, UniProt P15880); details: protein RPS2 40S ribosomal protein S2, P15880
[4] = target: PF-7802-labelled proteins in ARPE-19 cells (Homo sapiens, UniProt P21953); details: protein BCKDHB 2-oxoisovalerate dehydrogenase subunit beta, mitochondrial (P21953)
[5] = target: PF-7802-labelled proteins in ARPE-19 cells (Homo sapiens, UniProt P30044); details: protein PRDX5 Peroxiredoxin-5, mitochondrial, P30044
[6] = target: T1, PF-7802-labelled proteins in ARPE-19 cells (Homo sapiens, UniProt P35221); details: for Median SILAC Ratio (Heavy/Light): protein CTNNA1 Catenin alpha-1 (P35221)
T1 sequence (P35221 1-906): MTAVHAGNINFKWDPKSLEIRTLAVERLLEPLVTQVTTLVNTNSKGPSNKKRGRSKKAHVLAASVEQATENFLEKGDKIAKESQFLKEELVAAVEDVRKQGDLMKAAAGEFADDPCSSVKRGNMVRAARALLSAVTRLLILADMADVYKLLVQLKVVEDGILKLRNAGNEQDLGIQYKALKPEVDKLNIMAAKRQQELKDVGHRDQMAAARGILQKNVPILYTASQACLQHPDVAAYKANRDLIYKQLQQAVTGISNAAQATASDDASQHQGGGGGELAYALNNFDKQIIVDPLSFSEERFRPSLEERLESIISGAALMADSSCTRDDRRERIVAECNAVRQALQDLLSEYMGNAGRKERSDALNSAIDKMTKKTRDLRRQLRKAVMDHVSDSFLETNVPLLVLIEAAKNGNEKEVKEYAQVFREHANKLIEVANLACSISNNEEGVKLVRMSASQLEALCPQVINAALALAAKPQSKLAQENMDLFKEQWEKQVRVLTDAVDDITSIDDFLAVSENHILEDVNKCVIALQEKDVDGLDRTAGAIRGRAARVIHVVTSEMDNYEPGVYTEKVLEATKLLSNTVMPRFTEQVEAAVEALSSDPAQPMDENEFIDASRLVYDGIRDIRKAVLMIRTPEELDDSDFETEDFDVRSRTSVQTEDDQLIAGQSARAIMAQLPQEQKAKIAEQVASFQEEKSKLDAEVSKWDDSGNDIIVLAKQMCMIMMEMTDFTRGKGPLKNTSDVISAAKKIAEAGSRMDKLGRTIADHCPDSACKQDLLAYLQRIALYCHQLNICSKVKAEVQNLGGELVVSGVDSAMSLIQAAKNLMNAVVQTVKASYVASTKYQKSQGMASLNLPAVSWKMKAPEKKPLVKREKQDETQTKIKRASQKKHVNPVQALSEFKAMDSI

[7] = target: PF-7802-labelled proteins in ARPE-19 cells (Homo sapiens, UniProt P35222); details: protein CTNNB1 Catenin beta-1 (P35222)
UniProt P35222, sequence (P35222 whole entry): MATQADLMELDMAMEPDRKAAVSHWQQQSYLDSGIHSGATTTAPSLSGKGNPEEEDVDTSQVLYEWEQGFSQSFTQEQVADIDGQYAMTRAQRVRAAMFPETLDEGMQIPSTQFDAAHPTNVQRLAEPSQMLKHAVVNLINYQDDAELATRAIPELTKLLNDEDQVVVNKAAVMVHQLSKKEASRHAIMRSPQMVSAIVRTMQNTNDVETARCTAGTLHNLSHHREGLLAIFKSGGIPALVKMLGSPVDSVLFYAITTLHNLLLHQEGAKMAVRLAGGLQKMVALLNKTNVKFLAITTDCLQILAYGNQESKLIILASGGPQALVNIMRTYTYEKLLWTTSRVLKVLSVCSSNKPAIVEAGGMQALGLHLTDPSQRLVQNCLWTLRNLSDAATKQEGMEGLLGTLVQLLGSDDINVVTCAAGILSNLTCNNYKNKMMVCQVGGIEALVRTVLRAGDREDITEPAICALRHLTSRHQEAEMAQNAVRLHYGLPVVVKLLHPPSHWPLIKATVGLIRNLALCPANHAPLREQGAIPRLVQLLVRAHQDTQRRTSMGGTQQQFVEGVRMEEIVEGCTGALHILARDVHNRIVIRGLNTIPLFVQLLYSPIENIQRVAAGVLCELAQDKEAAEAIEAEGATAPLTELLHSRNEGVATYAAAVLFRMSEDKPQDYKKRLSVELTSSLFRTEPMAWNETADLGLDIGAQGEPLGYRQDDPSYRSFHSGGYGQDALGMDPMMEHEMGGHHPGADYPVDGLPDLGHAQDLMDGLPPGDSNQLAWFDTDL

[8] = target: PF-7802-labelled proteins in ARPE-19 cells (Homo sapiens, UniProt P42704); details: for Median SILAC Ratio (Heavy/Light): protein LRPPRC Leucine-rich PPR motif-containing protein, mitochondrial (P42704), replicates in separate columns
[9] = target: PF-7802-labelled proteins in ARPE-19 cells (Homo sapiens, UniProt P46781); details: protein RPS9 40S ribosomal protein S9, P46781
[10] = target: T2, PF-7802-labelled proteins in ARPE-19 cells (Homo sapiens, UniProt P49368); details: for Median SILAC Ratio (Heavy/Light): protein CCT3 T-complex protein 1 subunit gamma (P49368)
T2 sequence (P49368 1-545): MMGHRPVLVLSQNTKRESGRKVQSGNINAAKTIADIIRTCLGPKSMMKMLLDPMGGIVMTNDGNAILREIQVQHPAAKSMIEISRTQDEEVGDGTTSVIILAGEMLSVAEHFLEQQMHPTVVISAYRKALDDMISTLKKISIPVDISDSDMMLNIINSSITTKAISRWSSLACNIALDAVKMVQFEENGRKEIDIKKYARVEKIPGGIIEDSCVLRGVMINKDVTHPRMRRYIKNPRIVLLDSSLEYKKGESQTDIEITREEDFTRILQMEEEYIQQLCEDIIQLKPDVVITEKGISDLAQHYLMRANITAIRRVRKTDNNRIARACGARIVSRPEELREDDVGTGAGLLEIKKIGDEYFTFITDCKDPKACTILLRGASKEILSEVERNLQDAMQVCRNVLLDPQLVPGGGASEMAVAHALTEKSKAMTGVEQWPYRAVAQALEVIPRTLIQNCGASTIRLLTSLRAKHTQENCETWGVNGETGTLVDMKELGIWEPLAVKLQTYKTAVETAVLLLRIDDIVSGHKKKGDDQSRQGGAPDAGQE

[11] = target: PF-7802-labelled proteins in ARPE-19 cells (Homo sapiens, UniProt P53634); details: protein CTSC Dipeptidyl peptidase 1 (P53634)
[12] = target: PF-7802-labelled proteins in ARPE-19 cells (Homo sapiens, UniProt Q08170); details: SRSF4 Serine/arginine-rich splicing factor 4 (Q08170)
UniProt Q08170, sequence (Q08170 whole entry): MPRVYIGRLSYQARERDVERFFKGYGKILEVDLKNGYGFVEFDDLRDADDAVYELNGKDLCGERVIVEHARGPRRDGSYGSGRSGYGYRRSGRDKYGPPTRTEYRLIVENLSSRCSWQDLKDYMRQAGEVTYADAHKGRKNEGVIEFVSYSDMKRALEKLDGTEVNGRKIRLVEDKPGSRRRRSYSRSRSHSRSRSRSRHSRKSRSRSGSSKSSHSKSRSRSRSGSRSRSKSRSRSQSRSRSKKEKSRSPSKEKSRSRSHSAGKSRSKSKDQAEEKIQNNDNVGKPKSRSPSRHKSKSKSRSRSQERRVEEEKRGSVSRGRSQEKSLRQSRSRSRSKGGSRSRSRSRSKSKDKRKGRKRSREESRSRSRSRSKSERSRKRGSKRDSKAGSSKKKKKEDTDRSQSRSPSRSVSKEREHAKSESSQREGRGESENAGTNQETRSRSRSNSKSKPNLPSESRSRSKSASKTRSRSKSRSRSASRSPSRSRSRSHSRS

[13] = target: PF-7802-labelled proteins in ARPE-19 cells (Homo sapiens, UniProt Q14980); details: protein NUMA1 Nuclear mitotic apparatus protein 1 (Q14980); replicates in separate columns
UniProt Q14980, sequence (Q14980 whole entry): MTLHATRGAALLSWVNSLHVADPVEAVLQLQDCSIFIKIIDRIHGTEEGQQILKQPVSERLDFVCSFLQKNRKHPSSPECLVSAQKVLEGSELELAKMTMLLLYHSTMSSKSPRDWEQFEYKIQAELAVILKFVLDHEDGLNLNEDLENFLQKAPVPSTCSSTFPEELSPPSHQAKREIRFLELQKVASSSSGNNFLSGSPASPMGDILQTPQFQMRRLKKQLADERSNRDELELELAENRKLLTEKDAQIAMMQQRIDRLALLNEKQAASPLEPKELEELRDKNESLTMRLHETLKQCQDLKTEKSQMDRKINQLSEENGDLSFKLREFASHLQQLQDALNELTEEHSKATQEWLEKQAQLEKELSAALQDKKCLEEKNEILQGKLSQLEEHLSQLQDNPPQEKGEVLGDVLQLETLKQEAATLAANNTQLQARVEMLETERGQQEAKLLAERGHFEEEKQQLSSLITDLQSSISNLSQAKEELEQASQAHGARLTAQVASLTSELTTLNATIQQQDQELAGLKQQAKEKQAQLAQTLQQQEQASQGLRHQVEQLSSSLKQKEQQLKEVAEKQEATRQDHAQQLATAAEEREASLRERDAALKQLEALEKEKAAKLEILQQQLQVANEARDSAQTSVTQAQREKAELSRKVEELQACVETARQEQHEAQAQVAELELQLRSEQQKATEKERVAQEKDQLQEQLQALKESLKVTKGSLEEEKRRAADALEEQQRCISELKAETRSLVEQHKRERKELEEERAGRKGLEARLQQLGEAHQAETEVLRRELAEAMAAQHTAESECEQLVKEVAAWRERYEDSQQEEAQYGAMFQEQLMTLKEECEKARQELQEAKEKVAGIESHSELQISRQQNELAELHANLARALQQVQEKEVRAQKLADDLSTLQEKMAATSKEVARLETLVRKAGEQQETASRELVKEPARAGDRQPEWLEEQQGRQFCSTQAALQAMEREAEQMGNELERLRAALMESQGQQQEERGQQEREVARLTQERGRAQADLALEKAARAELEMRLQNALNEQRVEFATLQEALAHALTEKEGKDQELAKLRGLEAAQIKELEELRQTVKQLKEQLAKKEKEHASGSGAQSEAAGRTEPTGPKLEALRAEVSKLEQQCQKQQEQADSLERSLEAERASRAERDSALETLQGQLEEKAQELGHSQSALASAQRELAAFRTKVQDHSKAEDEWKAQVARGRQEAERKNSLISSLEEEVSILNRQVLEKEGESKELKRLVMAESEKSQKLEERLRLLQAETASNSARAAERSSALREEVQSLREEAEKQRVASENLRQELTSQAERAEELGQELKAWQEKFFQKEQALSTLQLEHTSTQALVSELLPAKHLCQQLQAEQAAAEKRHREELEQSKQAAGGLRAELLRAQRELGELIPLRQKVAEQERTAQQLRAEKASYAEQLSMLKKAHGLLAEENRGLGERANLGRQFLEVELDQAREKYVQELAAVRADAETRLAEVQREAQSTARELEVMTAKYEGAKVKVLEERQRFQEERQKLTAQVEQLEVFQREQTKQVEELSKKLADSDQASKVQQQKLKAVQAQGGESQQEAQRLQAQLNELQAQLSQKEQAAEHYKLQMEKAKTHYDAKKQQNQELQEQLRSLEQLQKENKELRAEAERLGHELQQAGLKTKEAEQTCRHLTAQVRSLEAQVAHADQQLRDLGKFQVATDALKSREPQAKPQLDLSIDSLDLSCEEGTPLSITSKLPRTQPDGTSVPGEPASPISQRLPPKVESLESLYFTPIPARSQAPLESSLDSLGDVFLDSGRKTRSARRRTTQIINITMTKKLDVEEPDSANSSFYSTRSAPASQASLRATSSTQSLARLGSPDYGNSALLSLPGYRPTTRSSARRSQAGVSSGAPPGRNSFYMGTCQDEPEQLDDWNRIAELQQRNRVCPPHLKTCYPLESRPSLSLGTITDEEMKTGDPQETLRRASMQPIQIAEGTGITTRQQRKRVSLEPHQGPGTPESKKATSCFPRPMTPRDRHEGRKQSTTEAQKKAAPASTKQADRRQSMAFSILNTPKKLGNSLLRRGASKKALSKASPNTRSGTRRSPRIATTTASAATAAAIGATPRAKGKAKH

[14] = target: PF-7802-labelled proteins in ARPE-19 cells (Homo sapiens, UniProt Q6WCQ1); details: protein MPRIP Myosin phosphatase Rho-interacting protein (Q6WCQ1); replicates in separate columns
[15] = target: PF-7802-labelled proteins in ARPE-19 cells (Homo sapiens, UniProt Q92804); details: TAF15 TATA-binding protein-associated factor 2N (Q92804)
UniProt Q92804, sequence (Q92804 whole entry): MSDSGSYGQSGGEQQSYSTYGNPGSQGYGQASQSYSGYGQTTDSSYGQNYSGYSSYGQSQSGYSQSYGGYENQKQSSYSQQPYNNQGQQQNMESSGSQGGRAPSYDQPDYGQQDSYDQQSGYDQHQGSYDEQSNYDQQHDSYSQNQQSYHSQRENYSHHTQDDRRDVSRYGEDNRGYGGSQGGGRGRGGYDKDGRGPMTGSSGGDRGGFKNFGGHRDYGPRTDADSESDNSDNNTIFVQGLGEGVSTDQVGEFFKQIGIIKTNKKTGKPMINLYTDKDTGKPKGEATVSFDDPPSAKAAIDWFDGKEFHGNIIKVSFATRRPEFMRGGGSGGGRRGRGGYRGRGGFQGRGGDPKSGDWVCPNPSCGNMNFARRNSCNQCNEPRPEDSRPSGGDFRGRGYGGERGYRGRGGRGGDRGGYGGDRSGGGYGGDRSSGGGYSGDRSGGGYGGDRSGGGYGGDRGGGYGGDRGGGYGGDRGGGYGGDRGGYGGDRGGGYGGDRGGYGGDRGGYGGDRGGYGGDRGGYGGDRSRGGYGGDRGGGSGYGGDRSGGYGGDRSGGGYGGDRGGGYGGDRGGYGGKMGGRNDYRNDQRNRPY

UniProt P08962, sequence (P08962 whole entry): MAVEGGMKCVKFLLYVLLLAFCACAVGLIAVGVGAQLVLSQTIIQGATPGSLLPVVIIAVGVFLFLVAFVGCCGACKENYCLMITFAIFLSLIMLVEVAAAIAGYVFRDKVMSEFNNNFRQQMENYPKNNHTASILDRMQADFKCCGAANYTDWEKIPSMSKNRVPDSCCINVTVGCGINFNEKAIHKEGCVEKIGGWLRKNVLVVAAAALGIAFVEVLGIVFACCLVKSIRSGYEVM

SMILES | Median SILAC Ratio (Heavy/Light) [1] | Median SILAC Ratio (Heavy/Light) [2] | Median SILAC Ratio (Heavy/Light) [3] | Median SILAC Ratio (Heavy/Light) [4] | Median SILAC Ratio (Heavy/Light) [5] | SILAC ratio (DMSO/CP-108671) ([6]; P35221 CTNNA1 Catenin alpha-1) | Median SILAC Ratio (Heavy/Light) [6] | Median SILAC Ratio (Heavy/Light) [7] | SILAC ratio (DMSO/CP-108671) ([8]; P42704 LRPPRC Leucine-rich PPR motif-containing protein, mitochondrial) | Median SILAC Ratio (Heavy/Light) [8] | Median SILAC Ratio (Heavy/Light) [9] | SILAC ratio (DMSO/CP-108671) ([10]; P49368 CCT3 T-complex protein 1 subunit gamma) | Median SILAC Ratio (Heavy/Light) [10] | Median SILAC Ratio (Heavy/Light) [11] | Median SILAC Ratio (Heavy/Light) [12] | Median SILAC Ratio (Heavy/Light) [13] | Median SILAC Ratio (Heavy/Light) [14] | Median SILAC Ratio (Heavy/Light) [15]
CNC1CCN(C(=O)C[C@@H](Cc2ccccc2)C(=O)N[C@@H](CSC)C(=O)N[C@@H](CC2CCCCC2)[C@@H](O)C(=O)OC(C)C)CC1 [CP-108671, reference compound] | 0.9086 | 0.9633 | 1.804 | 0.6186 | 1.141 | 0.82 | 1.216 | 1.205 | 0.98 | 1.023 | 1.945 | 0.68 | 1.467 | 0.5958 | 0.63 | 1.229 | 1.15 | 0.4361
Cc1cc([C@H]2C[C@H]3[C@@H](C)SC(N)=N[C@@]3(c3ccc(F)cc3F)CO2)on1 [PF-9283] | 2.499 and 2.799 | 1.131 | 1.896 | 1.097 | 1.372 |  | 1.389 | 1.331 |  | 1.39 | 1.686 |  | 1.243 | 1.158 | 0.633 | 1.356 | 1.246 | 0.8251 and 1.173
